Assay results from patent publication EP4537907A1 (Enthera S.r.l., dated 2025).

Columns and labels:
[1] = molecular target: T1, human CD248 expressed on the cell membrane of transiently transfected HEK 293 cells (human, UniProt Q9HCU0 18-757); experiment: flow cytometry on transiently transfected HEK 293 cells, secondary anti-human IgG, antibody concentration series
T1 construct: whole, on cells; also called human CD248+ cells; CD248-positive cells
T1 sequence (looked up): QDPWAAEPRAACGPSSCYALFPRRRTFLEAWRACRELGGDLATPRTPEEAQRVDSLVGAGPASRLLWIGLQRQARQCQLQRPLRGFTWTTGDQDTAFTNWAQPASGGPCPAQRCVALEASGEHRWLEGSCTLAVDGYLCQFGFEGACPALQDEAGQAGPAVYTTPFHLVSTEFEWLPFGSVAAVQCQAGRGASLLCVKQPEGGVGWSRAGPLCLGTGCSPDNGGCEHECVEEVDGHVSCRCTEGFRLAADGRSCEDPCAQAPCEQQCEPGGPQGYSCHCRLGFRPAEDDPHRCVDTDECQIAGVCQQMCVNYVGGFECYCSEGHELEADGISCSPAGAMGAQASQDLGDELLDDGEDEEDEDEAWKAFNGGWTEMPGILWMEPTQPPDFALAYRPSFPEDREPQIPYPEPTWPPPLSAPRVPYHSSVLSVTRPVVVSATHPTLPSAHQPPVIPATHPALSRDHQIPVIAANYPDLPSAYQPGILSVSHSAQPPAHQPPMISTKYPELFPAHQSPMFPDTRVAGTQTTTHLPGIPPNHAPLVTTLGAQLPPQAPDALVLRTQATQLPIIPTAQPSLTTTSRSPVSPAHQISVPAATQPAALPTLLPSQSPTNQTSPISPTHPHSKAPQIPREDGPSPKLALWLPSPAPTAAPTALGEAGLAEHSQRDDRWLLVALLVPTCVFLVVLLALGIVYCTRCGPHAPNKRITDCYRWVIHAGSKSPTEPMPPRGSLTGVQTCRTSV

[2] = molecular target: T2, recombinant human CD248 (internally produced) (human, UniProt Q9HCU0 18-687, limits assumed, biotinylated in the inhibition ELISA); experiment: BLI (Octet platform, BLItz System), mAb captured via Fc on AHC biosensor, soluble antigen at different concentrations
T2 construct: Soluble recombinant protein; also called human recombinant CD248; biotinylated CD248 (internally produced)
T2 sequence (looked up): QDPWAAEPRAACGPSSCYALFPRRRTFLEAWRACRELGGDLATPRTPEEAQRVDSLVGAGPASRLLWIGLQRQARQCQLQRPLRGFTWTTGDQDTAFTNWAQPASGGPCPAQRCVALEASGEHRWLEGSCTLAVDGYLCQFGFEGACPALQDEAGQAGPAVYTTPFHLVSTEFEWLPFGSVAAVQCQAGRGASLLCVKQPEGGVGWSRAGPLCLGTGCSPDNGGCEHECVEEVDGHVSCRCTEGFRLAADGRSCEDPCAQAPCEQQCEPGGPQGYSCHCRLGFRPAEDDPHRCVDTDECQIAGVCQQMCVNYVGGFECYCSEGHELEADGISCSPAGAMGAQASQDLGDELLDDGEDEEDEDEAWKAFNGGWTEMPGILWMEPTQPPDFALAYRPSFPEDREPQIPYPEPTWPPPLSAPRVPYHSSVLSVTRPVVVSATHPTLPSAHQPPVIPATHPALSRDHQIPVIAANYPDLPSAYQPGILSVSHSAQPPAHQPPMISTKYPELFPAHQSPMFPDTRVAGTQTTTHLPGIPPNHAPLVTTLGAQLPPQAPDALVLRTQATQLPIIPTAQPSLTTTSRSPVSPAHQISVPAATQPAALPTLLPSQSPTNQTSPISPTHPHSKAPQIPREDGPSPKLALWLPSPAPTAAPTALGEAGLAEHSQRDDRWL

[3] = molecular target: T3, recombinant mouse CD248 (internally produced) (mouse, UniProt Q91V98 18-695, limits assumed); experiment: as above
T3 construct: also called murine recombinant CD248; Murine CD248
T3 sequence (looked up): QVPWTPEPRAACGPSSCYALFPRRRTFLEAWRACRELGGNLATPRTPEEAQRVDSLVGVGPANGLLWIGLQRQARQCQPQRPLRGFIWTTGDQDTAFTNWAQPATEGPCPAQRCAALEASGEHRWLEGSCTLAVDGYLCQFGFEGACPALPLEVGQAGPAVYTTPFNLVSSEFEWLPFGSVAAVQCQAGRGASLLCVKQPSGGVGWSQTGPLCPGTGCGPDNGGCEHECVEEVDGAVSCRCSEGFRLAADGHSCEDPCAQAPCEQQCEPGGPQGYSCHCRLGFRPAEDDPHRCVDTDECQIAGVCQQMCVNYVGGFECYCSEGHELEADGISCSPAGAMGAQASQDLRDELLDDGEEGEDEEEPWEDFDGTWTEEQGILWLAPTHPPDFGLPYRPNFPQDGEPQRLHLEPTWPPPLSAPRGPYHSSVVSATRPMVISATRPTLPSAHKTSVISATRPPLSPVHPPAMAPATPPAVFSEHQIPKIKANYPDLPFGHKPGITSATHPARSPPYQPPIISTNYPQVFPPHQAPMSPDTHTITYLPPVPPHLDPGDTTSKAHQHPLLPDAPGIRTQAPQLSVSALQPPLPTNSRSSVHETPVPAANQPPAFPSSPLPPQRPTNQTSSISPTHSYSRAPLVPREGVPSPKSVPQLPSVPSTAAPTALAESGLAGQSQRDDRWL

[4] = molecular target: T2, recombinant human CD248 (internally …); experiment: competition ELISA: purified IgG4 (S228P/L235E) with biotinylated human CD248, added to immobilised human IGFBP5, Streptavidin-HRP
[5] = molecular target: T4, mouse CD248 expressed on the cell membrane of transiently transfected HEK 293 cells (mouse, UniProt Q91V98 18-765); experiment: flow cytometry on transiently transfected HEK 293 cells, secondary anti-human IgG; the row's antigen cell prints 'Human CD248', taken as a misprint of Mouse CD248 from the table's order
T4 construct: whole, on cells; also called mouse CD248+ cells
T4 sequence (looked up): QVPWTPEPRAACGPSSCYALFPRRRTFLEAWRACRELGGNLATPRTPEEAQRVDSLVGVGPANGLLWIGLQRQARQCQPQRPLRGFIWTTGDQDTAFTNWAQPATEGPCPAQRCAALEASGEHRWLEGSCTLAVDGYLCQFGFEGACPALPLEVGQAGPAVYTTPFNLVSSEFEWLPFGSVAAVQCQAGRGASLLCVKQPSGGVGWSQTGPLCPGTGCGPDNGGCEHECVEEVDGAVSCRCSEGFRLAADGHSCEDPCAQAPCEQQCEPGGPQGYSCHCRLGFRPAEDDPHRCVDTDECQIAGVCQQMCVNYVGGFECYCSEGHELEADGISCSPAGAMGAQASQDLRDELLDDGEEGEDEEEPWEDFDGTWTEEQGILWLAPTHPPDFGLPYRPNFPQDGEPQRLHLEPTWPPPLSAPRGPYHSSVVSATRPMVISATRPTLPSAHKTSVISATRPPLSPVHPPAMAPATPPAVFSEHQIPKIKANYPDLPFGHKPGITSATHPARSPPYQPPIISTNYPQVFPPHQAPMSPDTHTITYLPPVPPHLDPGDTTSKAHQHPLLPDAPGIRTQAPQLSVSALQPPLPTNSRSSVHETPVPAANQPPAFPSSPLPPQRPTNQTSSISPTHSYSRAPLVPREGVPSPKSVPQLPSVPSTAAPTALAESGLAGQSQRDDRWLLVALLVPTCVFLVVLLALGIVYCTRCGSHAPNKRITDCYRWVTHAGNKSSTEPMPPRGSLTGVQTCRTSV

EC50 [1]: 0.0261 µg/mL
Kd [2]: 5.37 nM
Kd [3]: 11.9 nM
IC50 [4]: 41.6 µg/mL
EC50 [5]: 0.0238 µg/mL
B1: YU1022-D08 (antibody, V domains shown)
VH: [no letters for about 100 residues]LTGTTWGQGTLVTVSS
VL: DIVMTQSPDSLAVSLGERATINCKSSRSVLYSSNNKNYLAWYQQKPGQPPKLLIYWASTRESGVPDRFSGSGSGTDFTLTISSLQAEDVAVYYCQQYYSTPYSFGQGTKVEIK
notes: Tested as full human IgG4 carrying the S228P/L235E mutations, made in HEK 293 cells; light 56, 57 or 58); also called YU1022-D08 mAb; YU1022-D08 IgG4 mAb
